# From PubChem BioAssay AID2451 (National Center for Advancing Translational Sciences (NCATS), 2010)
# Several values for one entry are separate records, joined by “and”; a condition that tells them apart may be missing. Equal entries are not always repeated. The campaign covered roughly 290,000 compounds. About 2,100 (0.72%) were called active. Inconclusive means that the source gave no clear call. Such entries were picked first, then a sample of the others. The call rests on the fitted dose curve; in most records, active means well fitted inhibition curve with a large enough effect; inconclusive means small, poorly fitted or top-dose-only effect, or effect the other way; inactive means flat fitted curve, though single readings scatter. A potency beside an inconclusive call is a rough fit, not a confirmed value.
# Target: Fructose-bisphosphate aldolase (Giardia intestinalis (strain ATCC 50803 / WB clone C6)) (UniProt A8B2U2)
# Sequence of UniProt A8B2U2 (A8B2U2 whole entry, looked up): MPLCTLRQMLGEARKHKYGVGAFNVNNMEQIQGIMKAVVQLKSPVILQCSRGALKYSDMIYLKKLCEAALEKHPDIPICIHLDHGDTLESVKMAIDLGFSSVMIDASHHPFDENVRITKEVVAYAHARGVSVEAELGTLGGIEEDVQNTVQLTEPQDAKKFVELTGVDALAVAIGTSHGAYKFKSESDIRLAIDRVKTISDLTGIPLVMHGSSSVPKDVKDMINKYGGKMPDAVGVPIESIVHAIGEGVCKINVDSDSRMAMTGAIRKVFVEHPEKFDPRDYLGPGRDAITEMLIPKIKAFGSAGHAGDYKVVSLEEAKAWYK
# Test: qHTS Assay for Inhibitors of Fructose-1,6-bisphosphate Aldolase from Giardia Lamblia; further: nearly all actives have a fitted effect of over 55% in size
# Settings: purified Giardia FBPA; activity, negative = inhibition: at 59.6 µM (top of the series) unless noted
# Description: Assay Provider: Osnat Herzberg, University of Maryland
# The objective of this project is to obtain compounds that inhibit Giardia lamblia growth. G. lamblia is a human pathogen which afflicts impoverished nations; it is the most common cause of outbreaks of diarrhea in the United States. During the course of our study of potential drug targets in Giardia, we have identified the Class II (Zn2+ functions in electrophilic catalysis) fructose-1,6-bisphosphate aldolase (FBPA) as an excellent candidate for drug targeting. FBPA is a key glycolytic pathway enzyme, essential for G. lamblia survival. The human FBPA belongs to the Class I aldolases, which have a different substrate binding site structure and a radically different catalytic mechanism (employing a lysine-Schiff base intermediate). Therefore, affinity-based or mechanism-based inhibitors of the Giardia FBPA are expected not to interfere with the catalytic function of the human FBPA.
# A glyceraldehyde-3-phosphate dehydrogenase/triose phosphate isomerase/NAD/arsenate coupled assay was adapted to the 1536-well HTP format for use in the primary screen. This was done by coupling it to a diaphorase/resazurin/resorufin reaction that can be monitored by fluorescence (excitation, 544 nm; emission, 590 nm). Compounds identified in this screen will be further evaluated by coupling the glycerol-3-phosphate/triose phosphate isomerase/NADH assay to a phenazine methosulfate/tetranitroblue tetrazolium color reaction. False positives due to the dehydrogenases and diaphorase inhibition will be eliminated, and selectivity assay will triage inhibitors of mammalian triose phosphate isomerase and the Class I FBPA. G. lamblia FBPA inhibitors identified by the in vitro analyses will be examined for growth inhibition of Giardia trophozoites, and for cytotoxicity in human cells.
# Step,Parameter,Value,Description
# 1,Enzyme reagent,2 uL,40 nM FBPA
# 2,Compound,23 nL,3.68 nM-57.5 uM final concentration
# 3,Time,10 min,RT Incubation
# 4,Substrate/detection Reagent,2 uL,Substrate + enzyme coupling system + AmpLite Red kit
# 5,Time,20 min,RT Incubation
# 6,Detector,525 nm/598 nm (Fluorescence),ViewLux Fluorescence Read (Read 1)
# 1,Medium-binding black solid-bottom Kalypsys plates. FRD or Kalypsys dispenser, 2 uL of FBPA enzyme. Bottle kept at 4C.
# 2,Compound Library (10 mM ,1:5 dilution). Pin-transferred for a [final] range of 3.68 nM-57.5 uM.
# 4,FRD or Kalypsys dispenser, 2 uL of reaction mixture. Bottle kept at 4C and covered in foil to protect from light.
# 6,ViewLux Protocol 1194; Excitation filter wheel A (525/20 Pol; BODIPY TMR FP), Emission filter wheel B (598/25 S; BODIPY TMR FP S).
# Keywords: Fructose-bisphosphate aldolase, FBPA , Giardia lamblia , Giardia, HTS, Inhibitors
# On the % scale 0 is the no-effect control and ±100 the full control effect; potency means the concentration at half of the fitted maximal effect; tags describe the fitted curve by direction and shape.
SMILES,"activity, negative = inhibition",Potency
CC1=NN(c2nc(-c3ccc(C)cc3)cs2)C(=O)C1N=Nc1cccc(C)c1 (configuration not stated),inactive: 3.57%,–
O=C(Nc1ccc2nc(-c3ccco3)c(-c3ccco3)nc2c1)NC1CC1,–,"inconclusive: 7.06 µM [inhibitor, partial curve]"
CCC1C2CN(C(C)=O)CC=C2C(C#N)=C(N)C1(C#N)C#N (configuration not stated),–,"inconclusive: 15.8 µM [inhibitor, single point]"
Oc1ccc(-c2n[nH]c(C(F)(F)F)c2-c2ccccc2)c(O)c1,inactive: -4.23%,–
CCC(C)c1ccccc1NC(=O)C(C)N(C)Cc1cccc(OC)c1 (configuration not stated),–,active: 19.9 µM
Cc1cc(S(=O)(=O)Nc2ccccc2C(=O)O)ccc1Cl,–,"inconclusive: 25.1 µM [activator, single point]"
COc1ccc(OC)c(CNn2c(-c3cccc(C)c3)nc3ccccc3c2=O)c1,inactive: -5.46%,–
Cc1ccccc1NC1=C/C(=N\S(=O)(=O)c2cccs2)c2ccccc2C1=O,–,"inconclusive: 0.177 µM [inhibitor, full curve]"
C#CCOc1ccccc1CNC1CCN(Cc2ccccc2)CC1,–,"inconclusive: 12.6 µM [inhibitor, partial curve]"
CCn1c2ccccc2c2cc(NC(=O)CNCc3ccccc3OC)ccc21,–,"inconclusive: 15.8 µM [inhibitor, partial curve]"
O=[N+]([O-])c1ccc(Cl)c(NC(=S)N2CCCC2)c1,–,"inconclusive: 22.4 µM [inhibitor, single point]"
NS(=O)(=O)c1cccc(NC(=O)c2cccc(-c3ccc(O)cc3)c2)c1,inconclusive: 53.2% [activator],–
Cc1ccc(S(=O)(=O)N2CCOCC2)cc1NC(=O)c1cc(-c2ccccn2)nc2ccccc12,inactive: 0.837%,–
CSc1ccccc1NC(=O)CO/N=C(\C)c1cc2ccccc2o1,inactive: 5.68%,–
CCc1ccccc1NC(=O)Cn1nnc(-c2cccnc2)n1,inactive: 0.428%,–
CN(C(=O)CCc1nc2ccccc2s1)c1ccccc1,inactive: 7.25%,–
Cc1ccc(Cl)c(OCCCN(C)Cc2ccccc2)c1,–,"inconclusive: 7.06 µM [inhibitor, partial curve]"
Cc1cccc(NC(=O)C2CCCN2C(=O)NC2CCCCC2)c1 (configuration not stated),inactive: 3.81%,–
COC(=O)CN(C)C(=O)CC1C(=O)NCCN1CC(C)(C)C (configuration not stated),–,"inconclusive: 19.9 µM [inhibitor, partial curve]"
Cn1c(=O)c2ccccc2n2c(=S)[nH]nc12,–,active: 15.8 µM
O=[N+]([O-])c1ccc(C[n+]2cccc3ccc4cccnc4c32)cc1,–,"inconclusive: 44.6 µM [inhibitor, single point]"
CC(=O)Nc1nc2ccc(NC(=O)c3ccco3)cc2s1,inactive: -2.77%,–
CCOC(=O)Nc1ccc(N2CCOCC2)c(S(=O)(=O)N2CCOCC2)c1,inactive: -2.87%,–
Oc1cccc(NC(=S)N=Nc2c(O)[nH]c3ccccc23)c1,–,"inconclusive: 22.3 µM [inhibitor, single point]"
CN(C1=NC(=O)C(CC(=O)O)S1)c1ccc(O)cc1 (configuration not stated),inactive: 2.78%,–
CN(C(=O)c1cc2c(s1)-c1ccccc1S(=O)(=O)C2)c1ccccc1F,inactive: 7.02%,–

SMILES,"activity, negative = inhibition",Potency
Cc1nc(-c2coc3c(O)c(O)ccc3c2=O)cs1,–,active: 14.1 µM
CC1(OC(=O)C2CCCC2)C(=O)C=C2C=C(c3ccsc3)N(CC3CC3)C=C2C1=O (configuration not stated),–,"inconclusive: 251 nM [inhibitor, full curve] and inconclusive: 500 nM [inhibitor, full curve]"
COc1ccccc1NC(=S)NNC(=O)c1nn(C)c(C)c1Cl,–,"inconclusive: 17.7 µM [activator, single point]"
CCCOC(=O)c1cccc(NC(=O)c2cccnc2)c1,inactive: -0.374%,–
COc1ccccc1NS(=O)(=O)c1cc(NC(=O)C2CC2)ccc1N1CCOCC1,–,"inconclusive: 5.61 µM [inhibitor, single point]"
CCOC(=O)c1c(N)sc2c1CCN(Cc1ccccc1)C2,–,active: 17.7 µM
Cc1nc2ccc(Cl)cc2nc(C)/c1=N\O,–,active: 14.1 µM
C/C(=N/Nc1nc(C)c(C)s1)c1cccc([N+](=O)[O-])c1,–,active: 31.6 µM
c1ccc(Cc2ccc(OCCN3CCOCC3)cc2)cc1,–,"inconclusive: 31.6 µM [inhibitor, single point]"
O=C(c1scc2c1CCCC2)N1CCOCC1,–,"inconclusive: 22.3 µM [inhibitor, partial curve]"
COc1ccc(S(=O)(=O)N2CCN(Cc3cc(OC)c(O)c(OC)c3)CC2)cc1,–,"inconclusive: 15.8 µM [inhibitor, partial curve]"
c1ccc(-c2noc(C34CC5CC(CC(C5)C3)C4)n2)nc1,inactive: 2.34%,–
O=C(c1ccco1)N1CCN(c2ccnc3cc(Cl)ccc23)CC1,inactive: 3.25%,–
Cc1cc(C)cc(OCC(O)CN2CC(C)OC(C)C2)c1 (configuration not stated),–,"inconclusive: 17.8 µM [inhibitor, partial curve]"
O=C(NN=C1c2ccccc2-c2ccccc21)c1cccc(Br)c1,–,"inconclusive: 5 µM [inhibitor, partial curve]"
O=C(O)c1cc(O)c2c(c1)C(=O)c1cccc(O)c1C2=O,–,"inconclusive: 22.3 µM [inhibitor, partial curve]"
CCN1CCCC(Sc2nc3c([nH]2)c(=S)n(C)c(=O)n3C)C1 (configuration not stated),–,"inconclusive: 7.92 µM [inhibitor, partial curve]"
N#C/C(=C\c1cccc(Cl)c1)C(=O)c1ccccc1,–,"inconclusive: 31.5 µM [inhibitor, single point]"
Cc1ccccc1-n1nnc2c(=O)oc3ccccc3c21,–,"inconclusive: 9.98 µM [inhibitor, partial curve]"
O=C(Nc1ncc([N+](=O)[O-])s1)c1cccc([N+](=O)[O-])c1,–,"inconclusive: 17.7 µM [inhibitor, partial curve]"
O=C(CN(c1cccc(Cl)c1)S(=O)(=O)c1ccc(Cl)cc1)N1CCc2ccccc2C1,inactive: -5.54%,–
Cc1cc(NC(=O)c2ccccc2)ncc1NC(=O)c1cccs1,–,"inconclusive: 17.7 µM [inhibitor, single point]"
Cc1ccc(/C=N/Nc2nncc(-c3ccccc3)n2)o1,inactive: -5.71%,–
COc1ccc(CN2CCN(CCCc3ccccc3)CC2)c(OC)c1,–,active: 15.8 µM
Cc1cc(=O)[nH]c(SCC(=O)Nc2ccc(Br)cn2)n1,inactive: 2.67%,–
O=C(CN1CCCCCC1)Nc1ccccc1,–,"inconclusive: 19.9 µM [inhibitor, partial curve]"

SMILES,"activity, negative = inhibition",Potency
O=C1CCCN1CCCNC(=S)Nc1ccc(F)cc1,–,"inconclusive: 17.7 µM [inhibitor, single point]"
Cc1ccc2nc(/C(C#N)=C/c3ccccc3C(=O)O)[nH]c2c1,inactive: -2.25%,–
CCOC(=O)c1c(C2COc3ccccc3O2)csc1N (configuration not stated),inactive: 0.408%,–
Clc1ccc(-c2nnc(Sc3nc4ccccc4o3)c3ccccc23)cc1,–,"inconclusive: 11.2 µM [inhibitor, partial curve]"
Cc1ccn2cc(-c3ccc(O)c(O)c3)nc2c1,–,"inconclusive: 39.8 µM [inhibitor, single point]"
COc1ccc(/C=N/N=C2/NC(=O)C(CC(=O)O)S2)cc1OS(=O)(=O)c1ccccc1 (configuration not stated),inactive: -0.865%,–
COc1cccc(NC(=S)/C(=C(\[O-])c2ccc(C)c([N+](=O)[O-])c2)[n+]2ccccc2)c1,–,"inconclusive: 12.6 µM [inhibitor, partial curve]"
COC(=O)c1nn(-c2ccc(OC)cc2)c(=O)c2c(N)sc(C)c12,–,"inconclusive: 1.99 µM [inhibitor, full curve]"
O=C1/C(=C\c2ccccn2)SC(=S)N1c1ccc(S(=O)(=O)Nc2nccs2)cc1,–,"inconclusive: 17.7 µM [inhibitor, single point]"
COc1ccc(-n2c(=S)[nH]c3cc(C(=O)NCc4ccco4)ccc3c2=O)c(OC)c1,–,"inconclusive: 44.6 µM [activator, single point]"
COC(=O)[C@@]1(Cc2ccc(OC)cc2)[C@H]2c3cc(C(=O)N4CCCC4)n(CCSCCO)c3C[C@H]2CN1C(=O)c1ccccc1,–,inactive
Cc1c(C)[n+](=O)c2c(n1[O-])CCC2,inactive: 5.59%,–
COc1cc(NC(=O)c2cc([N+](=O)[O-])ccc2NC(=O)CNC2CCCCC2)cc(OC)c1,inactive: -4.42%,–
O=C(CNC(=O)c1ccccc1F)N/N=C/c1cccnc1,inactive: 15.2%,–
NC(=S)N/N=C1\CCOc2ccc(F)cc21,–,"inconclusive: 17.7 µM [inhibitor, single point]"
CCc1nn(CC(=O)NCCN2CCN(C)CC2)c(=O)c2cc3occc3n12,inactive: -3.3%,–
COc1cc(/C=N/NC(=O)c2ccc(C)nc2)cc([N+](=O)[O-])c1O,inactive: -16.3%,–
COc1cccc(COc2cc3ccccc3nc2C)c1,inactive: -9.73%,–
COc1ccccc1/C=N/NC(=O)c1nnn(-c2nonc2N)c1-c1cccs1,–,"inconclusive: 31.6 µM [inhibitor, single point]"
Cc1sc(NC(=O)c2sc3nc4c(C)cccc4cc3c2N)c(C#N)c1C,–,"inconclusive: 2.81 µM [inhibitor, single point]"
COc1ccc(Oc2nc(-c3ccncc3)nc3ccccc23)cc1,inactive: -1.04%,–
COc1ccc(NC(=O)C2CC(=O)n3cnnc3S2)cc1 (configuration not stated),–,"inconclusive: 4.46 µM [inhibitor, partial curve]"
COC(=O)c1ccc(C(NC(=O)OCc2ccccc2)/C(=C/[C@@H](C)C(=O)Nc2ccc(OC)cc2)c2cccnc2)cc1 (some centres not stated),inactive: -2.93%,–
NS(=O)(=O)c1ccc(NC(=S)NC2CCCCCC2)cc1,–,"inconclusive: 31.5 µM [inhibitor, single point]"
CC(C)NC(=O)c1onc(CSc2ccc(C(C)C)cc2)c1C(=O)O,–,"inconclusive: 17.7 µM [activator, single point]"
